# The list shows a part of the results.
# B1: EULS2 M2 (Oryza sativa) (protein)
# chain: MVYCRANPNYAMTARNGAVVLAPANPKDEYQHWIKDMRWSTSIKDEEGYPAFALVNKATGQAIKHSLGQSHPVRLVPYNPEVMDESVLWTESRDVGNGFRCIRMVNNIYLNFDAFHGDKYHGGVRDGTDIVLWKLCEGDSQRWKIQPYYILEQKLISEEDLNSAVDHHHHHH
# What was measured:
# Assay in all cases: glycan array binding signal (z-score within array); higher = stronger binding
# Settings in all cases: glycan notation: IUPAC condensed, linker removed
# [1] = target: Neu5Ac(a2-6)Gal(b1-4)GlcNAc(b1-3)Gal(b1-4)GlcNAc(b1-3)Gal(b1-4)GlcNAc(b1-2)Man(a1-3)[Neu5Ac(a2-6)Gal(b1-4)GlcNAc(b1-3)Gal(b1-4)GlcNAc(b1-3)Gal(b1-4)GlcNAc(b1-2)Man(a1-6)]GalNAc
# How it was run: (§1)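 Glycan array data were curated from 3228 arrays in the Consortium for Functional Glycomics database and kept only where the protein sequence was available. Glycan names were converted to IUPAC-condensed notation, and columns mapping to the same glycan were averaged. The binding signal is a within-array Z-score, averaged across arrays of the same protein sequence at different concentrations or buffers and across linkers. Negative Z-scores can be read as non-binding.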
# [2] = target: Neu5Ac(a2-6)Gal(b1-4)GlcNAc(b1-3)Gal(b1-4)GlcNAc(b1-3)GalNAc
# How it was run: as §1
# [3] = target: Neu5Ac(a2-6)Gal(b1-4)GlcNAc(b1-3)Gal(b1-4)GlcNAc(b1-3)[Neu5Ac(a2-6)Gal(b1-4)GlcNAc(b1-3)Gal(b1-4)GlcNAc(b1-6)]GalNAc
# How it was run: as §1
# [4] = target: Neu5Ac(a2-6)Gal(b1-4)GlcNAc(b1-3)Gal(b1-4)GlcNAc(b1-6)[Gal(b1-3)]GalNAc
# How it was run: as §1
# [5] = target: Neu5Ac(a2-6)Gal(b1-4)GlcNAc(b1-3)Gal(b1-4)[Fuc(a1-3)]GlcNAc(b1-3)Gal(b1-4)[Fuc(a1-3)]GlcNAc
# How it was run: as §1
# [6] = target: Neu5Ac(a2-6)Gal(b1-4)GlcNAc(b1-3)GalNAc
# How it was run: as §1
# [7] = target: Neu5Ac(a2-6)Gal(b1-4)GlcNAc(b1-3)[Neu5Ac(a2-6)Gal(b1-4)GlcNAc(b1-6)]GalNAc
# How it was run: as §1
# [8] = target: Neu5Ac(a2-6)Gal(b1-4)GlcNAc(b1-6)GalNAc
# How it was run: as §1
# [9] = target: Neu5Ac(a2-6)Gal(b1-4)GlcNAc(b1-6)[Gal(b1-3)GlcNAc(b1-3)]Gal(b1-4)Glc
# How it was run: as §1
# [10] = target: Neu5Ac(a2-6)Gal(b1-4)GlcNAc(b1-6)[Gal(b1-3)]GalNAc
# How it was run: as §1
# [11] = target: Neu5Ac(a2-6)Gal(b1-4)GlcNAc6S
# How it was run: as §1
# Neu5Ac(a2-6)GalNAc = target: Neu5Ac(a2-6)GalNAc
# How it was run: as §1
# [12] = target: Neu5Ac(a2-6)GalNAc(b1-4)GlcNAc
# How it was run: as §1
# [13] = target: Neu5Ac(a2-6)GalNAc(b1-4)GlcNAc6S
# How it was run: as §1
# [14] = target: Neu5Ac(a2-6)GlcNAc(b1-4)GlcNAc
# How it was run: as §1
# [15] = target: Neu5Ac(a2-6)GlcNAc(b1-4)GlcNAc(b1-4)GlcNAc
# How it was run: as §1
# Neu5Ac(a2-8)Neu5Ac = target: Neu5Ac(a2-8)Neu5Ac
# How it was run: as §1
# [16] = target: Neu5Ac(a2-8)Neu5Ac(a2-3)Gal(b1-3)GalNAc(b1-4)[Neu5Ac(a2-3)]Gal(b1-4)Glc
# How it was run: as §1
# [17] = target: Neu5Ac(a2-8)Neu5Ac(a2-3)Gal(b1-3)GalNAc(b1-4)[Neu5Ac(a2-8)Neu5Ac(a2-3)]Gal(b1-4)Glc
# How it was run: as §1
# [18] = target: Neu5Ac(a2-8)Neu5Ac(a2-3)Gal(b1-4)Glc
# How it was run: as §1
# [19] = target: Neu5Ac(a2-8)Neu5Ac(a2-3)Gal(b1-4)GlcNAc
# How it was run: as §1
# [20] = target: Neu5Ac(a2-8)Neu5Ac(a2-3)[Gal(b1-3)GalNAc(b1-4)]Gal(b1-4)Glc
# How it was run: as §1
# [21] = target: Neu5Ac(a2-8)Neu5Ac(a2-3)[GalNAc(b1-4)]Gal(b1-4)Glc
# How it was run: as §1
# [22] = target: Neu5Ac(a2-8)Neu5Ac(a2-8)Neu5Ac
# How it was run: as §1
# [23] = target: Neu5Ac(a2-8)Neu5Ac(a2-8)Neu5Ac(a2-3)Gal(b1-4)Glc
# How it was run: as §1
# [24] = target: Neu5Ac(a2-8)Neu5Ac(a2-8)Neu5Ac(a2-3)[Gal(b1-3)GalNAc(b1-4)]Gal(b1-4)Glc
# How it was run: as §1
# [25] = target: Neu5Ac(a2-8)Neu5Ac(a2-8)Neu5Ac(a2-3)[GalNAc(b1-4)]Gal(b1-4)Glc
# How it was run: as §1
# [26] = target: Neu5Ac(a2-8)Neu5Ac(a2-8)Neu5Ac(a2-8)Neu5Ac(a2-3)[GalNAc(b1-4)]Gal(b1-4)Glc
# How it was run: as §1
# [27] = target: Neu5Ac(a2-8)Neu5Gc(a2-3)Gal(b1-4)GlcNAc
# How it was run: as §1
# [28] = target: Neu5Ac(b2-6)Gal(b1-4)GlcNAc
# How it was run: as §1
# Neu5Ac(b2-6)GalNAc = target: Neu5Ac(b2-6)GalNAc
# How it was run: as §1
# [29] = target: Neu5Ac9Ac(a2-3)Gal(b1-3)GlcNAc
# How it was run: as §1
# [30] = target: Neu5Ac9Ac(a2-3)Gal(b1-4)GlcNAc
# How it was run: as §1
# [31] = target: Neu5Ac9Ac(a2-6)Gal(b1-4)GlcNAc
# How it was run: as §1
# [32] = target: Neu5Gc(a2-3)Gal(b1-3)GlcNAc
# How it was run: as §1
# [33] = target: Neu5Gc(a2-3)Gal(b1-3)[Fuc(a1-4)]GlcNAc
# How it was run: as §1
# Neu5Gc(a2-3)Gal(b1-4)Glc = target: Neu5Gc(a2-3)Gal(b1-4)Glc
# How it was run: as §1
# [34] = target: Neu5Gc(a2-3)Gal(b1-4)GlcNAc
# How it was run: as §1
# [35] = target: Neu5Gc(a2-3)Gal(b1-4)GlcNAc(b1-3)Gal(b1-4)GlcNAc(b1-2)Man(a1-3)[Neu5Gc(a2-3)Gal(b1-4)GlcNAc(b1-3)Gal(b1-4)GlcNAc(b1-2)Man(a1-6)]Man(b1-4)GlcNAc(b1-4)GlcNAc
# How it was run: as §1
# [36] = target: Neu5Gc(a2-3)Gal(b1-4)[Fuc(a1-3)]GlcNAc
# How it was run: as §1
# [37] = target: Neu5Gc(a2-6)Gal(b1-4)GlcNAc
# How it was run: as §1
# Neu5Gc(a2-6)GalNAc = target: Neu5Gc(a2-6)GalNAc
# How it was run: as §1
# [38] = target: Neu5Gc(a2-8)Neu5Ac(a2-3)Gal(b1-4)GlcNAc
# How it was run: as §1
# [39] = target: Neu5Gc(a2-8)Neu5Gc(a2-3)Gal(b1-4)GlcNAc
# How it was run: as §1
# [40] = target: Neu5Gc(a2-8)Neu5Gc(a2-3)Gal(b1-4)GlcNAc(b1-3)Gal(b1-4)GlcNAc
# How it was run: as §1
binder,measurement,setting,value
B1,glycan array binding signal (z-score),[1],0.058
same,glycan array binding signal (z-score),[2],-0.499
same,glycan array binding signal (z-score),[3],-0.159
same,glycan array binding signal (z-score),[4],-0.768
same,glycan array binding signal (z-score),[5],-0.268
same,glycan array binding signal (z-score),[6],-0.138
same,glycan array binding signal (z-score),[7],-0.912
same,glycan array binding signal (z-score),[8],0.33
same,glycan array binding signal (z-score),[9],0.297
same,glycan array binding signal (z-score),[10],0.479
same,glycan array binding signal (z-score),[11],-0.389
same,glycan array binding signal (z-score),Neu5Ac(a2-6)GalNAc,-0.587
same,glycan array binding signal (z-score),[12],-0.44
same,glycan array binding signal (z-score),[13],-0.373
same,glycan array binding signal (z-score),[14],0.093
same,glycan array binding signal (z-score),[15],-0.697
same,glycan array binding signal (z-score),Neu5Ac(a2-8)Neu5Ac,-0.363
same,glycan array binding signal (z-score),[16],-0.748
same,glycan array binding signal (z-score),[17],-0.295
same,glycan array binding signal (z-score),[18],-0.496
same,glycan array binding signal (z-score),[19],-0.336
same,glycan array binding signal (z-score),[20],-0.202
same,glycan array binding signal (z-score),[21],-0.465
same,glycan array binding signal (z-score),[22],-0.125
same,glycan array binding signal (z-score),[23],-0.085
same,glycan array binding signal (z-score),[24],0.078
same,glycan array binding signal (z-score),[25],-0.523
same,glycan array binding signal (z-score),[26],-0.212
same,glycan array binding signal (z-score),[27],-0.865
same,glycan array binding signal (z-score),[28],-0.38
same,glycan array binding signal (z-score),Neu5Ac(b2-6)GalNAc,-0.415
same,glycan array binding signal (z-score),[29],0.409
same,glycan array binding signal (z-score),[30],-0.37
same,glycan array binding signal (z-score),[31],-0.559
same,glycan array binding signal (z-score),[32],-0.348
same,glycan array binding signal (z-score),[33],-0.376
same,glycan array binding signal (z-score),Neu5Gc(a2-3)Gal(b1-4)Glc,0.111
same,glycan array binding signal (z-score),[34],0.191
same,glycan array binding signal (z-score),[35],0.09
same,glycan array binding signal (z-score),[36],-0.551
same,glycan array binding signal (z-score),[37],-0.401
same,glycan array binding signal (z-score),Neu5Gc(a2-6)GalNAc,0.154
same,glycan array binding signal (z-score),[38],-0.437
same,glycan array binding signal (z-score),[39],-0.425
same,glycan array binding signal (z-score),[40],-0.188
